# The other results are listed elsewhere or left out.
# What was measured:
# Assay in all cases: glycan array binding signal (z-score within array); higher = stronger binding
# Settings in all cases: glycan notation: IUPAC condensed, linker removed
# [1] = target: Fuc(a1-2)Gal(b1-4)[Fuc(a1-3)]GlcNAc
# In short: (§1)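 Glycan array data were curated from 3228 arrays in the Consortium for Functional Glycomics database and kept only where the protein sequence was available. Glycan names were converted to IUPAC-condensed notation, and columns mapping to the same glycan were averaged. The binding signal is a within-array Z-score, averaged across arrays of the same protein sequence at different concentrations or buffers and across linkers. Negative Z-scores can be read as non-binding.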
# [2] = target: Fuc(a1-2)Gal(b1-4)[Fuc(a1-3)]GlcNAc(b1-2)Man(a1-3)[Fuc(a1-2)Gal(b1-4)[Fuc(a1-3)]GlcNAc(b1-2)Man(a1-6)]Man(b1-4)GlcNAc(b1-4)[Fuc(a1-6)]GlcNAc
# In short: as §1
# [3] = target: Fuc(a1-2)Gal(b1-4)[Fuc(a1-3)]GlcNAc(b1-2)[Fuc(a1-2)Gal(b1-4)[Fuc(a1-3)]GlcNAc(b1-4)]Man(a1-3)[Fuc(a1-2)Gal(b1-4)[Fuc(a1-3)]GlcNAc(b1-2)Man(a1-6)]Man(b1-4)GlcNAc(b1-4)GlcNAc
# In short: as §1
# [4] = target: Fuc(a1-2)Gal(b1-4)[Fuc(a1-3)]GlcNAc(b1-3)Gal(b1-4)[Fuc(a1-3)]GlcNAc
# In short: as §1
# [5] = target: Fuc(a1-2)Gal(b1-4)[Fuc(a1-3)]GlcNAc(b1-3)Gal(b1-4)[Fuc(a1-3)]GlcNAc(b1-3)Gal(b1-4)[Fuc(a1-3)]GlcNAc
# In short: as §1
# [6] = target: Fuc(a1-2)Gal(b1-4)[Fuc(a1-3)]GlcNAc(b1-3)GalNAc
# In short: as §1
# [7] = target: Fuc(a1-2)Gal(b1-4)[Fuc(a1-3)]GlcNAc(b1-3)[Neu5Ac(a2-6)Gal(b1-4)GlcNAc(b1-6)]Gal(b1-4)Glc
# In short: as §1
# [8] = target: Fuc(a1-2)Gal3S(b1-4)GlcNAc
# In short: as §1
# [9] = target: Fuc(a1-2)Gal6S(b1-3)GlcNAc
# In short: as §1
# [10] = target: Fuc(a1-2)Gal6S(b1-3)GlcNAc6S
# In short: as §1
# Fuc(a1-2)Gal6S(b1-4)Glc = target: Fuc(a1-2)Gal6S(b1-4)Glc
# In short: as §1
# [11] = target: Fuc(a1-2)Gal6S(b1-4)Glc6S
# In short: as §1
# Fuc(a1-2)[Gal(a1-3)]Gal = target: Fuc(a1-2)[Gal(a1-3)]Gal
# In short: as §1
# [12] = target: Fuc(a1-2)[Gal(a1-3)]Gal(b1-3)GalNAc
# In short: as §1
# [13] = target: Fuc(a1-2)[Gal(a1-3)]Gal(b1-3)GalNAc(b1-3)Gal(a1-4)Gal(b1-4)Glc
# In short: as §1
# [14] = target: Fuc(a1-2)[Gal(a1-3)]Gal(b1-3)GlcNAc
# In short: as §1
# [15] = target: Fuc(a1-2)[Gal(a1-3)]Gal(b1-3)GlcNAc(b1-2)Man(a1-3)[Fuc(a1-2)[Gal(a1-3)]Gal(b1-3)GlcNAc(b1-2)Man(a1-6)]Man(b1-4)GlcNAc(b1-4)GlcNAc
# In short: as §1
# [16] = target: Fuc(a1-2)[Gal(a1-3)]Gal(b1-3)GlcNAc(b1-2)Man(a1-3)[Fuc(a1-2)[Gal(a1-3)]Gal(b1-3)GlcNAc(b1-2)Man(a1-6)]Man(b1-4)GlcNAc(b1-4)[Fuc(a1-6)]GlcNAc
# In short: as §1
# [17] = target: Fuc(a1-2)[Gal(a1-3)]Gal(b1-3)GlcNAc(b1-3)GalNAc
# In short: as §1
# [18] = target: Fuc(a1-2)[Gal(a1-3)]Gal(b1-3)GlcNAc(b1-6)GalNAc
# In short: as §1
# [19] = target: Fuc(a1-2)[Gal(a1-3)]Gal(b1-4)Glc
# In short: as §1
# [20] = target: Fuc(a1-2)[Gal(a1-3)]Gal(b1-4)GlcNAc
# In short: as §1
# [21] = target: Fuc(a1-2)[Gal(a1-3)]Gal(b1-4)GlcNAc(b1-2)Man
# In short: as §1
# [22] = target: Fuc(a1-2)[Gal(a1-3)]Gal(b1-4)GlcNAc(b1-2)Man(a1-3)[Fuc(a1-2)[Gal(a1-3)]Gal(b1-4)GlcNAc(b1-2)Man(a1-6)]Man(b1-4)GlcNAc(b1-4)GlcNAc
# In short: as §1
# [23] = target: Fuc(a1-2)[Gal(a1-3)]Gal(b1-4)GlcNAc(b1-2)Man(a1-3)[Fuc(a1-2)[Gal(a1-3)]Gal(b1-4)GlcNAc(b1-2)Man(a1-6)]Man(b1-4)GlcNAc(b1-4)[Fuc(a1-6)]GlcNAc
# In short: as §1
# [24] = target: Fuc(a1-2)[Gal(a1-3)]Gal(b1-4)GlcNAc(b1-3)GalNAc
# In short: as §1
# [25] = target: Fuc(a1-2)[Gal(a1-3)]Gal(b1-4)GlcNAc(b1-3)[Fuc(a1-2)[Gal(a1-3)]Gal(b1-4)GlcNAc(b1-6)]GalNAc
# In short: as §1
# [26] = target: Fuc(a1-2)[Gal(a1-3)]Gal(b1-4)GlcNAc(b1-6)GalNAc
# In short: as §1
# [27] = target: Fuc(a1-2)[Gal(a1-3)]Gal(b1-4)[Fuc(a1-3)]Glc
# In short: as §1
# [28] = target: Fuc(a1-2)[Gal(a1-3)]Gal(b1-4)[Fuc(a1-3)]GlcNAc
# In short: as §1
# [29] = target: Fuc(a1-2)[Gal(a1-3)]Gal(b1-4)[Fuc(a1-3)]GlcNAc(b1-3)GalNAc
# In short: as §1
# [30] = target: Fuc(a1-2)[Gal(a1-4)]Gal(b1-4)GlcNAc
# In short: as §1
# [31] = target: Fuc(a1-2)[GalNAc(a1-3)]Gal
# In short: as §1
# [32] = target: Fuc(a1-2)[GalNAc(a1-3)]Gal(b1-3)GalNAc(a1-3)[Fuc(a1-2)]Gal(b1-4)GlcNAc
# In short: as §1
# [33] = target: Fuc(a1-2)[GalNAc(a1-3)]Gal(b1-3)GalNAc(b1-3)Gal(a1-4)Gal(b1-4)Glc
# In short: as §1
# [34] = target: Fuc(a1-2)[GalNAc(a1-3)]Gal(b1-3)GlcNAc
# In short: as §1
# [35] = target: Fuc(a1-2)[GalNAc(a1-3)]Gal(b1-3)GlcNAc(b1-2)Man(a1-3)[Fuc(a1-2)[GalNAc(a1-3)]Gal(b1-3)GlcNAc(b1-2)Man(a1-6)]Man(b1-4)GlcNAc(b1-4)GlcNAc
# In short: as §1
# [36] = target: Fuc(a1-2)[GalNAc(a1-3)]Gal(b1-3)GlcNAc(b1-2)Man(a1-3)[Fuc(a1-2)[GalNAc(a1-3)]Gal(b1-3)GlcNAc(b1-2)Man(a1-6)]Man(b1-4)GlcNAc(b1-4)[Fuc(a1-6)]GlcNAc
# In short: as §1
binder,measurement,setting,value
DC-ASGPR L+GEE (Homo sapiens) (protein) MTRTYENFQYLENKVKVQGFKNGPLPLQSLLQRLRSGPCHLLLSLGLGLLLLVIICVVGFQNSKFQRDLVTLRTDFSNFTSNTVAEIQALTSQGSSLEETIASLKAEVEGFKQERQAGVSELQEHTTQKAHLGHCPHCPSVCVPVHSEMLLRVQQLVQDLKKLTCQVATLNNNGEEASTEGTCCPVNWVEHQDSCYWFSHSGMSWAEAEKYCQLKNAHLVVINSREEQNFVQKYLGSAYTWMGLSDPEGAWKWVDGTDYATGFQNWKPGQPDDWQGHGLGGGEDCAHFHPDGRWNDDVCQRPYHWVCEAGLGQTSQESH,glycan array binding signal (z-score),[1],-0.075
same,glycan array binding signal (z-score),[2],-0.285
same,glycan array binding signal (z-score),[3],0.202
same,glycan array binding signal (z-score),[4],-0.128
same,glycan array binding signal (z-score),[5],-0.412
same,glycan array binding signal (z-score),[6],-0.112
same,glycan array binding signal (z-score),[7],-0.436
same,glycan array binding signal (z-score),[8],-0.315
same,glycan array binding signal (z-score),[9],-0.455
same,glycan array binding signal (z-score),[10],0.136
same,glycan array binding signal (z-score),Fuc(a1-2)Gal6S(b1-4)Glc,-0.468
same,glycan array binding signal (z-score),[11],-0.532
same,glycan array binding signal (z-score),Fuc(a1-2)[Gal(a1-3)]Gal,-0.567
same,glycan array binding signal (z-score),[12],-0.285
same,glycan array binding signal (z-score),[13],-0.318
same,glycan array binding signal (z-score),[14],-0.3
same,glycan array binding signal (z-score),[15],0.307
same,glycan array binding signal (z-score),[16],-0.55
same,glycan array binding signal (z-score),[17],-0.214
same,glycan array binding signal (z-score),[18],2.67
same,glycan array binding signal (z-score),[19],0.073
same,glycan array binding signal (z-score),[20],-0.715
same,glycan array binding signal (z-score),[21],0.292
same,glycan array binding signal (z-score),[22],-0.117
same,glycan array binding signal (z-score),[23],-0.55
same,glycan array binding signal (z-score),[24],-0.186
same,glycan array binding signal (z-score),[25],-0.209
same,glycan array binding signal (z-score),[26],-0.492
same,glycan array binding signal (z-score),[27],-0.25
same,glycan array binding signal (z-score),[28],-0.011
same,glycan array binding signal (z-score),[29],-0.328
same,glycan array binding signal (z-score),[30],-0.403
same,glycan array binding signal (z-score),[31],0.708
same,glycan array binding signal (z-score),[32],0.525
same,glycan array binding signal (z-score),[33],-0.233
same,glycan array binding signal (z-score),[34],0.993
same,glycan array binding signal (z-score),[35],1.19
same,glycan array binding signal (z-score),[36],0.89

# Reference: the supplement of paper PMC8728848
